According to the supplement of paper PMC10300432:

B1: C5074 (protein)
chain 1: QVQLVESGGGVVQPGRSLRLSCATSGFTFRNYGMHWVRQAPGKGLEWVAVISYDGSTKYNVDSVKGRFTISRDNSKNTVYLQMNSLRAEDTAVYYCAKNGGGEYCSGGNCYSGYFDYWGQGTLVTVSS
chain 2: DIQMTQSPSSLSASVGDRVTITCQASQDISNSLNWYQQKPGKAPKLLIYDASNLETGVPSRFSGSGSGADFTFTISSLQPEDIATYYCQQYDSLPVTFAQGTKLEIK
B2: C5078 (protein)
chain 1: EVQLVQSGAEVKKPGESLKISCKVSGYSFTYYWIAWVRQMPGKGLEWMGIIYPGDSDTRYSPSFQGQVTISGDKSISTAYLEWSSLEASDTAIYYCARRSQTVGYFDYWGQGTLVTVSS
chain 2: SYELTQPPSVSVAPGKTASISCGGANIGTKHVHWYQQQPGQAPVVVISFDTDRPSGIPERFSGSKSGNTATLTISRVEAGDEADYFCQVWDSNSEHYVFGTGIKVTV
B3: C5080 (protein)
chain 1: QVQLVQSGAEVKKPGSSVKVSCKASGGPFSNYPFSWVRQAPGQGLEWMGRIIPALGVTNYAQKFQGRVTITADRSTRTGYMELSSLRSEDTAVYYCARTLGYSDYGASYYFDYWGQGTLVTVSS
chain 2: QSVLTQPPSVSGAPGQRVTISCTGGNSNIAAGYDVHWYQQLPGTAPKLLIYRNTNRPSGVPDRFSGSKSDTSASLAITGLQAEDEADYYCQSYDSSLSGEVFGTGTKVTVL
B4: C5081 (protein)
chain 1: QVQLVQSGAEVKKPGSSVTVSCKASGGTFGSSSISWVRQAPGQGLEWMGRIIPVLGIPSYAQNLQGRVTITADKSTSTAYMELSSLRSQDTAVYFCAREVGYSDYGSNYYFDLWGRGTLVTVS
chain 2: B3 chain 2 with G25S, A30G, T54N, N55I, G99D, E100S, T104G, K107R, V108L
B5: C5083 (protein)
chain 1: EVQLVESGGGLVKPGGSLRLSCVASGFSFRNAWMTWVRQAPGKGLEWVGRINTETEGGTADYAAPVKGRFTISRDESENTLYLQMSSLKIEDTAVYYCSTSDLLHYYDYGMDVWGQGTTVTVSS
chain 2: DIQMTQSPSTLSASVGDRVTITCRASQSVSSWLAWYQQKPGKAPKLLIYKASSLQSGVPSRFSGSGSGTEFTLTISSLQPDDFATYYCQQYDTYWWTFGQGTKVEIK
B6: C5079 (protein)
chain 1: EVQLLESGGGLVQPGGSLRLSCVASGFTFSTSAMSWVRQSPGKGLEWVSAITNSGGGAFYTDSVKGRFTISRDNSKNTLYLQMNSLRAEDTAIYYCAREAMGPTMFFDYWGQGTLVTVSS
chain 2: DIQMTQSPSSLSASVGDRVTITCRASQSISRFLNWYQQKPGKAPKLLIYDASSLQSGVPSRFRGSGSGTDFTLTISSLQPEDFATYYCQQSYSSPPITFGQGTRLEIK
B7: C5075 (protein)
chain 1: EVQLVESGGGLVKPGGSLTLPCTASGFSFSDAWMSWVRQAPGKGLEWVGRIKSKIDGGPTEYAAPVKGRFTISRDDSKNTLFLQMNSLKTEDTAVYYCTTEAVVSSWGAFDFWGQGTMVTVSS
chain 2: EIVLTQSPATLSLSPGERATLSCRASQSVSSNYLSWYQQKPGQAPRLLIYGASTRATGIPARFSGSGSGTDFTLTISSLQPEDFAVYYCQQDYNLPITFGQGTRLEIK
B8: C5077 (protein)
chain 1: QVQLVQSGAEVKKPGASVKVSCKASNYPFTFYGISWVRQAPGQGLEWMGWISAKNGNTNYAQNFQGRVTVTTDTSTSTAYMELKSLTSDDTAVYYCARDFFGDGYNPLPYFDRWGQGTLVTVSS
chain 2: QSVLTQPPSASGTPGQRVTISCSGSTSNIGSNTVNWYQQLPGAAPKLLIYGDYQRPSGVPDRFSGSKSGTSASLAISGLQSEDEADYYCASWDDNFNGWLFGGGTKLTVL

Tests used:
[1] = molecular target: SARS-CoV-2 Omicron BA.1 spike pseudovirus; test: pseudovirus neutralization IC50; higher = weaker neutralization
Method: (§1)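 Single-round luciferase reporter pseudovirus mixed with antibody dilutions and put on HT1080-ACE2 clone 14 cells for 48 h; signal relative to no-antibody wells, four-parameter fit.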

[2] = molecular target: SARS-CoV-2 Omicron BA.4/5 spike pseudovirus; test: as above
Method: as §1

[3] = molecular target: SARS-CoV-2 Wuhan-Hu-1 spike pseudovirus; test: as above
Method: as §1

[4] = molecular target: SARS-CoV-2 Wuhan-Hu-1 spike receptor-binding domain; test: ELISA binding EC50; higher = weaker binding; ELISA of recombinant human antibody on coated antigen, from 10 µg/ml in fourfold dilutions; four-parameter fit.

| Binder | pseudovirus neutralization IC50 [1] | pseudovirus neutralization IC50 [2] | pseudovirus neutralization IC50 [3] | ELISA binding EC50 [4] |
| --- | --- | --- | --- | --- |
| B1 | > 1 µg/mL | > 1 µg/mL | > 1 µg/mL | 0.00713 µg/mL |
| B2 | 0.102 µg/mL | 0.0962 µg/mL | 0.111 µg/mL | 0.00242 µg/mL |
| B3 | 0.132 µg/mL | > 1 µg/mL | 0.0563 µg/mL | 0.00356 µg/mL |
| B4 | 0.0333 µg/mL | 0.596 µg/mL | 0.0629 µg/mL | 0.00637 µg/mL |
| B5 | > 1 µg/mL | > 1 µg/mL | > 1 µg/mL | 0.00399 µg/mL |
| B6 | > 1 µg/mL | > 1 µg/mL | 0.555 µg/mL | 0.00486 µg/mL |
| B7 | 0.172 µg/mL | 0.404 µg/mL | 0.427 µg/mL | 0.00361 µg/mL |
| B8 | 0.00499 µg/mL | > 1 µg/mL | 0.00519 µg/mL | 0.00368 µg/mL |

Residue numbers refer to the chain shown, from its start. Recombinant human monoclonal antibodies (heavy:light variable regions). ELISA EC50 on the named antigen, from 10 µg/ml down; IC50 against spike pseudovirus on HT1080-ACE2 cells, 48 h; lower = stronger. Calls: IC50 above 1,000 ng/ml = non-neutralizing; EC50 above 1,000 ng/ml = non-binder.
